Measured values as given in PubChem BioAssay AID761 (NMMLSC, 2007).
Among all 190,000 compounds or so, about 400 (0.21%) were called active. The inconclusive results got no clear call from the source; some entries with a clear call stand among them for comparison.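 Rule for the calls: active = percent activity GTP binding at least 20 points away from the 100% baseline, either down as inhibitor or up as activator; inconclusive = compound flagged as likely green fluorescent from well-wide comparison; inactive = the rest.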

biological target: Cell division control protein 42 homolog (Homo sapiens) (UniProt P60953); experiment: wildtype Cdc42 fluorescent GTP binding changes, either direction – biochemical, multiplex bead flow cytometry, Bodipy-GTP, primary screen (AID 761); details: GST-Cdc42 beads, at 10 µM, actives lie on both sides;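 note: median bead fluorescence of bound Bodipy-FL-GTP at 100 nM; 0% = excess unlabeled GTP control and 100% = no compound control; below 100% means less GTP binding so inhibitor and above means activator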
Chain of UniProt P60953 (P60953 whole entry, looked up): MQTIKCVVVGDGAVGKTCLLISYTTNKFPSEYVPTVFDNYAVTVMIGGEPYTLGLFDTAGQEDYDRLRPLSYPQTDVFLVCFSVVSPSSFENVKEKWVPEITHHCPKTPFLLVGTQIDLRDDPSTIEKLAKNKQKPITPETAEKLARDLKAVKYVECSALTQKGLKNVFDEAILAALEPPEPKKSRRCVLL

SMILES | percent activity (GTP binding)
CC1(C(=O)NCc2ccc(Cl)c(Cl)c2)Oc2cccnc2NC1=O (stereo not drawn) | inactive: 99%
O=C(Oc1ccc(C(=S)N2CCOCC2)cc1Br)c1ccccc1F | inconclusive: 91%
COC(=O)c1c(NC(=O)CSc2nnnn2-c2ccccc2)sc2c1CCC(C)C2 (stereo not drawn) | inconclusive: 88%
Cc1cc(OCC(=O)Nc2ccncc2)ccc1Br | inconclusive: 91%
COc1cc(C(=O)OCC(=O)Nc2sccc2C(N)=O)cc(OC)c1OC | inconclusive: 91%
COc1ccccc1NC(=O)CSc1ccc2nnc(-c3cccnc3)n2n1 | inconclusive: 74%
CNC(=O)CSc1nc2[nH]ncc2c(=O)[nH]1 | inactive: 94%
O=Cc1cn(CC(O)CN2CCCCC2)c2ccccc12 (stereo not drawn) | inconclusive: 96%
CCN(CC)C(=O)Cn1cc(C(=O)C(=O)NCc2ccco2)c2ccccc21 | inactive: 96%
O=S(=O)(/N=C(\Nc1ccc(F)cc1)C(F)(F)F)c1ccccc1 | inconclusive: 102%
Cc1cc(Cl)ccc1OCC(=O)OCC(=O)Nc1ccc(F)c([N+](=O)[O-])c1 | active: 77%
COc1ccc(-c2c(O)c(C#N)c(-c3ccccc3)n(-c3ccc(OC)cc3)c2=O)cc1 | inconclusive: 94%
CSCCC(=O)Nc1cc(S(=O)(=O)N2CCOCC2)ccc1N1CCN(C)CC1 | inconclusive: 93%
CCCCCCNc1cc2n(c(=O)n1)CCc1cc(OC)c(OC)cc1-2 | inconclusive: 79%
S=C1NCCOCCOCCNC(=S)N2CCOCCOCCN1CCOCCOCC2 | inactive: 98%
CSc1nc(O)cc(=O)n1-c1ccc(F)cc1 | inactive: 97%
CNC(=S)NNC(=O)c1noc(C)c1C(=O)N1CCN(C(c2ccccc2)c2ccccc2)CC1 | inactive: 94%
O=C(c1ccco1)N1CCN(c2cc(N3CCOCC3)c(F)cc2[N+](=O)[O-])CC1 | inconclusive: 91%
COc1ccccc1NC(=O)Nc1cccnc1 | inactive: 94%
Cc1ccc(S(=O)(=O)O/N=C2/CCCc3occc32)cc1 | inconclusive: 107%
COc1ccc(CNc2ccccc2SC)cc1OC | inconclusive: 105%
COc1ccc(-c2c[n+]3c4n2CCCCC4=C(c2ccccc2)C3)cc1 | inconclusive: 108%
O=C(Nn1c(O)c(C=C2N=c3ccccc3=N2)sc1=S)c1ccccc1 | inconclusive: 94%
Cc1cc(C)n2nc(SCC(=O)N/N=C/c3cccc(Br)c3)nc2n1 | inconclusive: 89%

SMILES | percent activity (GTP binding)
CCCCOC(=O)NC1CCS(=O)(=O)C1 (stereo not drawn) | inconclusive: 105%
NC(=O)Cn1nc([N+](=O)[O-])nc1Oc1ccccc1C(=O)N1CCOCC1 | inconclusive: 92%
O=C(C[n+]1cccc2ccccc21)c1ccc(NC(=O)c2ccccc2)cc1 | inconclusive: 128%
O=C(c1cc(-c2ccncc2)nc2ccc(Br)cc12)N1CCN(c2ccccn2)CC1 | inconclusive: 93%
COc1ccc(N2CC(C(=O)N/N=C/c3cc([N+](=O)[O-])ccc3O)CC2=O)cc1 (stereo not drawn) | inconclusive: 91%
Cn1c(=O)c2c(ncn2CC(O)CNc2cccc(Cl)c2)n(C)c1=O (stereo not drawn) | inactive: 107%
CCOc1ccc(C(=O)Nc2ccccc2C(=O)O)cc1 | inconclusive: 96%
COc1ccc(NS(=O)(=O)c2cc(NC(=O)c3cnccn3)ccc2OC)cc1Br | inactive: 90%
Cn1nc(-c2ccc(Cl)cc2)c2cc(C(=O)NCCN3CCOCC3)sc21 | inconclusive: 90%
COc1ccc([N+](=O)[O-])cc1NC(=S)NC(NC(=O)Cc1ccc(OC)c(OC)c1)C(Cl)(Cl)Cl (stereo not drawn) | active: 54%
Cc1ccc(-c2noc(CN3C(C)CCCC3C)n2)cc1 (stereo not drawn) | inconclusive: 81%
Cc1ccc(C(c2nnnn2C2CCCCC2)N2CCN3CCCC3C2)cc1 (stereo not drawn) | inactive: 103%
CC1CN(c2nc3c(c(=O)n(Cc4ccc(Cl)c(Cl)c4)c(=O)n3C)n2C)CC(C)O1 (stereo not drawn) | inconclusive: 92%
COc1ccc(/C=C/C(=O)NC(C)CCc2ccccc2)cc1 (stereo not drawn) | inactive: 100%
CCN(C(=O)CSc1nnc(-c2ccncc2)n1C)C1CCS(=O)(=O)C1 (stereo not drawn) | inconclusive: 110%
CCOC(=O)C1(Cc2ccccc2)CCN(Cc2ccc3cc(NC(C)=O)ccc3n2)CC1 | inactive: 98%
CC1=CC(C)(C)Nc2ccc(OC(=O)c3ccco3)cc21 | inconclusive: 92%
Cc1cccc(-c2nnnn2-c2cccc(C)c2)c1 | inconclusive: 94%
Oc1c(Cl)cc(Cl)cc1C=Nc1ccc2c(c1)OCCO2 | inconclusive: 85%
Cc1ccc(O)c(NC(=O)c2cccc(S(=O)(=O)N3CCCCC3)c2)c1 | inconclusive: 98%
COc1ccc(CC(=O)OC(C)CN2CCCCC2)cc1 (stereo not drawn) | inactive: 99%
O=[N+]([O-])c1cc(/C=N\Nc2nccs2)ccc1O | inconclusive: 92%
COCCNc1nc(=S)[nH]c2cc(OC)c(OC)cc12 | active: 68%
O=C(NCc1cccnc1)Nc1cccc(NC(=O)NCc2cccnc2)c1 | inconclusive: 106%

SMILES | percent activity (GTP binding)
O=c1c2ccccc2sn1-c1ccccc1 | inconclusive: 103%
COc1ccc(N=C2S/C(=C\c3ccc(N4CCOCC4)o3)C(=O)N2CCc2c[nH]c3ccccc23)cc1 | inconclusive: 130%
Cc1ccc(C)c(OCCn2cc(C(=O)O)c3ccccc32)c1 | active: 140% [activator]
CSc1nc2c(c(=O)n1C)SC(C)C2 (stereo not drawn) | inconclusive: 104%
CCOc1ccccc1N1CCN(Cc2c(C)n(C)n(-c3ccccc3)c2=O)CC1 | inactive: 100%
CCO[C@@H]1OC(C(=O)N2CCOCC2)=C[C@H](c2ccccc2)[C@H]1CCCO | inactive: 99%
O=C(CN1C(=O)c2ccccc2S1(=O)=O)Nc1cccnc1 | inconclusive: 101%
Cc1ccc(S(=O)(=O)N(C)C)cc1NC(=S)N1CCCCC1CO (stereo not drawn) | inconclusive: 95%
Cc1cc(-c2ccccc2)nc(N2CCC(C(=O)NCc3ccccc3Cl)CC2)n1 | inactive: 97%
CCCCCC(=O)Nc1ccc(S(=O)(=O)Nc2nccc(C)n2)cc1 | inactive: 95%
Cc1cccn2c(=O)c(/C=N/O)c(N3CCCCC3)nc12 | inconclusive: 95%
CCCCNC(=O)c1onc(CSc2ccccc2C)c1C(=O)O | inconclusive: 85%
CCOc1ccc(CC(=O)NNC(=S)Nc2ccccc2)cc1Br | inconclusive: 97%
COc1ccc(N2C(=O)C3NN=C(C(=O)OCc4ccccc4)C3C2=O)cc1 (stereo not drawn) | inconclusive: 95%
Cc1oc(-c2ccccc2Cl)nc1CN1CCCN(C(=O)c2ccco2)CC1 | inconclusive: 96%
COc1ccc2o/c(=N/NC(=O)c3cccs3)c(C(N)=O)cc2c1 | active: 60%
COc1ccc(/C=N\NC(=O)c2cc(O)c(O)c(O)c2)cc1CN1CCN(c2ccc(F)cc2)CC1 | inconclusive: 95%
COC(=O)c1ccc(OCC(O)CN2C(=O)c3ccccc3S2(=O)=O)cc1 (stereo not drawn) | inactive: 96%
COC(=O)C1=C(C)N(c2ccccc2)C(=S)NC1c1ccccc1C(F)(F)F (stereo not drawn) | inconclusive: 90%
O=C(C[n+]1cccc(CO)c1)Nc1nc2ccccc2s1 | inactive: 96%
Cc1cccc(N=Cc2[nH]c3ccc(Br)c(Cl)c3c2O)c1 | inconclusive: 132%
O=C(CN1CCN(Cc2ccccc2)CC1)N/N=C/c1c[nH]c2ccccc12 | inactive: 101%
Nc1cccnc1Sc1cc(Cl)c(Cl)cc1Cl | inconclusive: 92%
CCN(CC)S(=O)(=O)c1ccc(N2CCOCC2)c(NC(=O)c2ccc(C#N)cc2)c1 | inactive: 98%

SMILES | percent activity (GTP binding)
CCCc1nc(C)c(-c2ccc(OC)c(OC)c2)c(=O)[nH]1 | inconclusive: 106%
CCOC(=O)c1c(C)[nH]c2cc(Br)c(O)cc12 | inconclusive: 89%
COc1ccc(Cc2c(O)nc(SCC(=O)NC(C)(C)C)[nH]c2=O)cc1 | inactive: 93%
CC1CCc2cc(F)ccc2N1S(=O)(=O)c1ccc(Cl)nc1 (stereo not drawn) | inconclusive: 105%
Cc1cc(C)n2nc(SCC(=O)Nc3ccccc3)nc2n1 | inactive: 97%
CC(Oc1ccccc1)C(=O)Nc1oc(-c2ccco2)c(-c2ccco2)c1C#N (stereo not drawn) | inconclusive: 95%
Cn1nc(-c2ccc(Cl)cc2)c2cc(C(=O)NC3CC3)sc21 | inconclusive: 91%
O=C(/C=C/c1ccccc1)NC(NC(=S)Nc1ccc(Cl)cc1)C(Cl)(Cl)Cl (stereo not drawn) | inconclusive: 94%
O=C(O)C1=C[C@H](c2ccc(Br)cc2)C[C@H](OCc2ccc(CO)cc2)O1 | active: 71%
Cc1ccc2cc3cc(C(=O)N4CCN(Cc5ccccc5)CC4)sc3nc2c1 | inconclusive: 161%
Cc1ccc[n+](CC(=O)Nc2cccc([N+](=O)[O-])c2)c1 | inconclusive: 94%
N#C/C(=C(/O)CN1CCOCC1)c1nc(-c2ccccc2)cs1 | inconclusive: 105%
CS(=O)(=O)Nc1ccc(C2=NN(C(=O)c3ccco3)C(c3ccccc3F)C2)cc1 (stereo not drawn) | inactive: 92%
CCNS(=O)(=O)c1ccc(CCC(=O)NCc2ccc(C)cc2)cc1 | inconclusive: 95%
Cc1nnc(SCC(=O)Nc2nc(-c3ccc(F)cc3)cs2)[nH]c1=O | inconclusive: 86%
O=C(Nc1ccc2nc(-c3cccs3)[nH]c2c1)c1cccs1 | active: 75%
COc1ccc(S(=O)(=O)N(CCCN2CCCC2=O)Cc2cc3c(C)ccc(C)c3[nH]c2=O)cc1 | inconclusive: 95%
O=c1nc2n(c3c1oc1ccccc13)Cc1ccccc1-2 | inconclusive: 91%
COCCNS(=O)(=O)c1cc(C)c(C)cc1C | inconclusive: 100%
Nc1c([N+](=O)[O-])cc(-c2cnc[nH]2)cc1[N+](=O)[O-] | active: 77%
C[C@@H]1C[C@H](O)c2cc(Cl)ccc2N1 | inconclusive: 105%
